# Source: patent US20230279246A1, “MOLECULE-CONTAINING SURFACES AND METHODS OF PREPARATION THEREOF” (University of Durham, priority 2020, published 2023)
# Tested on: Gram-positive Staphylococcus aureus (FDA209P, an MSSA strain; ATCC 6538P)
# Assay: Antibacterial testing of coated substrates, CFU plate counting
# Conditions: relative to untreated substrate; for Bacteria Loss/Log10 Reduction S. aureus (Gram-positive): coated PET film, 4 h at 30 °C, mean ± standard deviation; for Log10 Reduction S. aureus: plasma poly(4-vinylaniline) series, title: polypropylene film, text: PET substrates, average ± standard deviation
Structure (SMILES),Bacteria Loss/Log10 Reduction S. aureus (Gram-positive) [Log10 Reduction],Bacteria Loss/Log10 Reduction S. aureus (Gram-positive) (listed as cinnamaldehyde),Log10 Reduction S. aureus (listed as Cinnamaldehyde-only) [Log10 Reduction],Log10 Reduction S. aureus (listed as cinnamaldehyde-only),Bacteria Loss/Log10 Reduction S. aureus (Gram-positive) (listed as Tannic acid-only)
"O=C/C=C/c1ccccc1 [Cinnamaldehyde, trans-cinnamaldehyde]",0.29 ± 0.07,very small antibacterial effect,0.29 ± 0.07,very small effect,–
"O=C(OC[C@H]1O[C@@H](OC(=O)c2cc(O)c(O)c(OC(=O)c3cc(O)c(O)c(O)c3)c2)[C@H](OC(=O)c2cc(O)c(O)c(OC(=O)c3cc(O)c(O)c(O)c3)c2)[C@@H](OC(=O)c2cc(O)c(O)c(OC(=O)c3cc(O)c(O)c(O)c3)c2)[C@@H]1OC(=O)c1cc(O)c(O)c(OC(=O)c2cc(O)c(O)c(O)c2)c1)c1cc(O)c(O)c(OC(=O)c2cc(O)c(O)c(O)c2)c1 [Tannic Acid, tannic acid]",0.13 ± 0.07,–,–,–,only a modest reduction in viability
